Data reported in the supplement of paper PMC11417369.
The other results are listed elsewhere or left out.

Each sequence was assayed on PfSIP2 AP2 domain 1 (GST-tagged) (assay: gcPBM binding intensity (ln(normalized median fluorescence intensity)); higher = stronger DNA binding).
Summary of the method: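 Binding of GST-tagged P. falciparum DNA-binding domains, expressed in E. coli and used at about 25 μg on average, was carried out for 1 h in 1× PBS containing 1% milk, 0.2 mg/ml BSA, 0.5% salmon testes DNA and 0.03% Triton X-100. The target was an Agilent 4 × 180k array of primer-extended double-stranded 36-bp intergenic genomic probes plus negative controls, read with Alexa488 anti-GST antibody at 488 nm. Binding intensity is the highest Masliner-normalised natural-log median intensity across replicate spots of either probe orientation.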

Row | Sequence | gcPBM binding intensity (ln)
1 | TATATTACTTATATTTGTACACAGAAATATAAATCA [XGTACX_site13] | 6.82
2 | TTTTTCATAAGAAGCACACAAAAAATGATAGAGAAT [CACACA_site1417] | 7.52
3 | AAAAAAAAAATATATTGTACAAATAGATATGTCAAT [XGTACX_site122] | 6.84
4 | AAAGAAAGTACCTTCACACATATAAGAATATAATAT [CACACA_site5214] | 6.93
5 | TGAAATACGAATTATTGTACTTATGTGTAAGATGGC [XGTACX_site4472] | 7.41
6 | AATATATTTTAATATACACACATATATGCTCTTTAA [CACACA_site9371] | 6.9
7 | TTATTTTTTTTGTGTTGTACAATTTATTACTACTAA [XGTACX_site346] | 7.19
8 | AAACAAATATGTAGCACACATTCACATAATATATTT [CACACA_site2335] | 7.21
9 | GTATTTATAATACGGCGTACATAAAAAAAAAAAAAA [XGTACX_site3705] | 7.41
10 | TTATTTATGTGTAGGGCATGCAATCGTGTTTTTAAA [TGCATGCA_site735] | 7.14
11 | TTATAATATATATCTGCATGTTGCTTTGGGGCTTTA [TGCATGCA_site712] | 6.95
12 | TATATTAAACAATATACACACATTAATGTAGACATA [CACACA_site8889] | 6.71
13 | GAAAATTCTTAAGGCACACACATATAAGATATATAC [CACACA_site6410] | 6.83
14 | TTTCAGACAAAAAAAAAAAAAAAAAAGAGGAGAATA [CACACA_negctrl_site254] | 6.64
15 | TTTAAGCAAAGACACACACACATATTTATATTTATA [CACACA_site6295] | 6.9
16 | AAACATTTATACAAAGCACACAATTTTTAACTTTTA [CACACA_site2627] | 6.82
17 | AACCTTTTAAGAGTTGCACACGTACAAAAAAAAAAA [CACACA_site9159] | 7.5
18 | AATAAAAAAAAAAAAAAAAAAAAAAACCTGAGGAGT [CACACA_negctrl_site1140] | 6.84
19 | TTATTCATAAAAACAAAAAACAAAAATGAAATAGGA [CACACA_negctrl_site1123] | 7.03

Row | Sequence | gcPBM binding intensity (ln)
20 | TATGATATAATATACACACATACATATATATATATA [CACACA_site510] | 9
21 | TATTATGTCTAAAATAACATATTAATATATTATTTC [CACACA_negctrl_site285] | 6.89
22 | TTAATATTTTATTTCACACACATAAATGCCCCAAAC [CACACA_site1887] | 7.72
23 | AGAGTTCTCCTATGCACACAAAAAACTTTCATTTAT [CACACA_site4193] | 8.78
24 | CATCATATAAATTCAAGTACAAGAAAAAGTAATATA [XGTACX_site2383] | 6.96
25 | AAATAATTTTTATTTGTACACACATACATATATATT [CACACA_site8240] | 6.96
26 | TAAATAAAGATATATACACACATATTTATATTTATA [CACACA_site6431] | 6.75
27 | ACAAAATTGAAATTCACACAAAAACTATACTTTTTA [CACACA_site4638] | 6.75
28 | ATATCTACTTTTTTATGTACGAAAAAAATACGGATT [XGTACX_site8937] | 7.18
29 | TATATATATATTAATAGTACATATTATGTAAGCCTA [XGTACX_site2826] | 8.57
30 | TTTTTTTTTTTTTTTGTGCACAATATAATTTTTAAT [GTGCAC_site9747] | 8.64
31 | AAAAAATACATACATACACACATATATATATATATA [CACACA_site913] | 9.82
32 | TCCTCTTATAATTCGTGTCCACATATATCATACAAT [XGTACX_site1523] | 7.53
33 | ATAAAACAAATGAGTACACACACATAAAAATTGAAA [CACACA_site7949] | 7.13
34 | TACGGATATATATATTGTACATATATATAATATATA [XGTACX_site3156] | 7.25
35 | CATAAAAATGAACATACACACATATATATATATATA [CACACA_site2498] | 9.39
36 | TTGCTTTCTTTTTTTTGTACTCATATCTACTATCAT [XGTACX_site7711] | 7.07
37 | CGAGCAAGACGGGGTGCACACAAACTAATATGCCGA [CACACA_site7936] | 12.1
38 | ATTATTATGTAGAAGGTGCTATGTTCTATAAATATA [GTGCAC_site9545] | 8.09

Row | Sequence | gcPBM binding intensity (ln)
39 | TACCTTTATTAATAAAGTACATTAATCTGTGTATAC [XGTACX_site8720] | 6.88
40 | AAAAAAAAAAAAATGTGGACACAATTGTGTGTTTGT [XGTACX_site3563] | 7.1
41 | TACATATTTTATAGCACACAAATAATAATATGTAGT [CACACA_site688] | 7.03
42 | TTTTTGTTAAAATAAATATTATAAATATATTAATAT [TGCATGCA_negctrl_site239] | 6.98
43 | GTTGTGGAAAGAAGTTGTACATAAAATATTATATAA [XGTACX_site4352] | 7.22
44 | AGGCCTTTTAGTATTTCACACACGTAAATGCGTATA [CACACA_site1108] | 6.6
45 | TTTTTTCTTTTTTTTTTTAATTATAAACATGATATT [GTGCAC_negctrl_site144] | 6.63
46 | TAAATATATATAACATGTACATAAAATATATATATA [XGTACX_site4431] | 8.61
47 | TATCTTCATTGTTGACGTACAGTATTTCTAAACGTT [XGTACX_site3439] | 6.96
48 | CCACTTGTGTAATGTTGTACAAAAATAAATATATTT [XGTACX_site4598] | 7.03
49 | CTATGAACACACACATGTACATATATTAACTCGCTA [XGTACX_site8805] | 7.07
50 | ATAATTAAAAATAATATATATATAATATGATATTAT [GTGCAC_negctrl_site194] | 6.94
51 | TACACATACAGACATACACACATACACATATACACA [CACACA_site6918] | 7.23
52 | AAAAAAAAAAAAAACACACACACACGCACATATACA [CACACA_site7288] | 7.66
53 | TATCCATATTTGTTCACACACACACCCATTTATATA [CACACA_site3571] | 7.27
54 | ATTTTTATGTTGAAAAGTACTTGAATCCCATGTAAC [XGTACX_site4453] | 7.09
55 | TTCTTTTTTTTTAAAACAAACAAACAAACAAACAAA [CACACA_negctrl_site832] | 7.06
56 | TATTTATTTATTTAGTGTACATTTATATTTGTTCAT [XGTACX_site7575] | 7.02
